Source: article PMC3694053
No constants are given. Whether binding was seen depends on the method and setting. Binding seen in cells or lysates may run through a third protein. Some binding calls cover weakened binding; strength is not graded here. For part of these data: Where a sequence is shown, tags or fusion partners need not be part of it.

By UniProt entry, the sequences of proteins in these tests, tags left out. Where a name states a change or a piece, a line headed by the entry shows the natural chain unless it says otherwise.
UniProt Q15208: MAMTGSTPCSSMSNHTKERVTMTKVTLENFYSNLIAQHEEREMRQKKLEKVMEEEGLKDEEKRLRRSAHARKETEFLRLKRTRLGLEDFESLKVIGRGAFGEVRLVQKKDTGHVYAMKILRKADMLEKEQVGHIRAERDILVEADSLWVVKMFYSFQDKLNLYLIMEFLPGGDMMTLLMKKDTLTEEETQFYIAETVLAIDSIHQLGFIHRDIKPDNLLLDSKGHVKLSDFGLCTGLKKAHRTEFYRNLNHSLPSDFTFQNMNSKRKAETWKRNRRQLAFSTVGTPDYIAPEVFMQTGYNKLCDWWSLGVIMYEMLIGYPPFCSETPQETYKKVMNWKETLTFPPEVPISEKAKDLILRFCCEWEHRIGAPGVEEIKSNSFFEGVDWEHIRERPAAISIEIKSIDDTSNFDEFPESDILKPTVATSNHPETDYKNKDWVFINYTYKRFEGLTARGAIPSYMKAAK

Legend:
MYC-SnoN = target: T1, MYC-SnoN (UniProt P12757); test: co-IP; 293T cells expressing Rluc-NDR1 (wild type or deletion mutants) alone or with MYC-SnoN; immunoprecipitation with the MYC or SnoN antibody, Renilla luciferase activity of the immunoprecipitate normalised to expression
T1 sequence: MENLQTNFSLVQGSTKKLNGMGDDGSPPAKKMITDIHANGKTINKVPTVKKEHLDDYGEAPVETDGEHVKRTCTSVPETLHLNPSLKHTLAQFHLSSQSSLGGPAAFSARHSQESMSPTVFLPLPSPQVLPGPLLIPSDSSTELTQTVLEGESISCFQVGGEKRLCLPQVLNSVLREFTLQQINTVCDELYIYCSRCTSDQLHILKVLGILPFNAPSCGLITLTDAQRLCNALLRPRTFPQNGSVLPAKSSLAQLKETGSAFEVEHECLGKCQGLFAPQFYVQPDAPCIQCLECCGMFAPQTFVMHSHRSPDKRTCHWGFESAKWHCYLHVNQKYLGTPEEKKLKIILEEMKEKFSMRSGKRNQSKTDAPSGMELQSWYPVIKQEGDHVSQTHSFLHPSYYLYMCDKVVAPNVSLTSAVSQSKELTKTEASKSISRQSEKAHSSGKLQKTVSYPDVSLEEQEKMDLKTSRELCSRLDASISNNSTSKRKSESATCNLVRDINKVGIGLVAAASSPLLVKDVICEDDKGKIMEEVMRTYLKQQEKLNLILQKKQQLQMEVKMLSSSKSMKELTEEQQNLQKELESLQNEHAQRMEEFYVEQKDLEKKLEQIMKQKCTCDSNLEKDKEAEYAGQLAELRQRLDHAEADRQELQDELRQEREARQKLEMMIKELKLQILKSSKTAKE

[1] = target: T2, endogenous SnoN (human (endogenous in 293T)) (UniProt P12757); test: co-IP; 293T cells expressing Rluc, Rluc-SnoN or Rluc-NDR1; immunoprecipitation of the endogenous partner (NDR1 or SnoN antibody, IgG as control), Renilla luciferase activity of the immunoprecipitate as read-out
T2 sequence: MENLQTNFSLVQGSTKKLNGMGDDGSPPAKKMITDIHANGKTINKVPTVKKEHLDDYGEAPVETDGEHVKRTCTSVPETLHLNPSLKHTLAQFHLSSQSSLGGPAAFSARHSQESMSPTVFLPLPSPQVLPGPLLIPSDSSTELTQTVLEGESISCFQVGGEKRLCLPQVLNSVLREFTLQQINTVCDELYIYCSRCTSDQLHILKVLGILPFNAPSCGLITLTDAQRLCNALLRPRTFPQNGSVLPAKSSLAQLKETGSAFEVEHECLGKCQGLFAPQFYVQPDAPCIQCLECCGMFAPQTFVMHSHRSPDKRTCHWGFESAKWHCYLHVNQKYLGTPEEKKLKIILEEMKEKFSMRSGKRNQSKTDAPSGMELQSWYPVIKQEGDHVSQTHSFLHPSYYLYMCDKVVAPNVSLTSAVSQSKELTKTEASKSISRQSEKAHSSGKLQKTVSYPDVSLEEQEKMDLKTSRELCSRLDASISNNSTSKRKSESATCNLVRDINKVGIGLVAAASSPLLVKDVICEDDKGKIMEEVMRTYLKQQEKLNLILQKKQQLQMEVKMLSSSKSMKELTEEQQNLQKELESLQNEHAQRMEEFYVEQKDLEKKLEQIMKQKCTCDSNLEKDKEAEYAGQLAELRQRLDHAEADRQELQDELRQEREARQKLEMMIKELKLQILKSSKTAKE

[2] = target: endogenous NDR1 (nuclear Dbf2-related 1) (human (endogenous in HaCaT and 293T)) (UniProt Q15208); test: co-IP; untreated or TGFβ-treated 293T cells; immunoprecipitation with the NDR1 antibody or IgG, immunoblotting with the SnoN or NDR1 antibody; both proteins endogenous
HA-NDR1 [3] = target: HA-NDR1 (UniProt Q15208); test: co-IP; 293T cells expressing Rluc-SnoN (wild type or deletion mutants) alone or with HA-NDR1; immunoprecipitation with the HA antibody, Renilla luciferase activity of the immunoprecipitate normalised to Rluc-SnoN and NDR1 expression
[4] = target: endogenous NDR1 (nuclear Dbf2-related 1) (human (endogenous in HaCaT and 293T)) (UniProt Q15208); test: co-IP; 293T cells expressing Rluc, Rluc-SnoN or Rluc-NDR1; immunoprecipitation of the endogenous partner (NDR1 or SnoN antibody, IgG as control), Renilla luciferase activity of the immunoprecipitate as read-out
HA-NDR1 [5] = target: HA-NDR1 (UniProt Q15208); test: co-IP; 293T cells expressing MYC-SnoN and HA-NDR1; immunoprecipitation with the HA antibody or the SnoN antibody, immunoblotting; TNE-based buffer with 0.5% Triton X-100

“Rluc-NDR1 with deletion of the N-terminal 82 amino acid residues (from UniProt Q15208 83-465) (domain or fragment)” was tested, and the binding (MYC-SnoN) was “binds”.

In the case of “Rluc-NDR1 (wild type, aa1–465) (from UniProt Q15208 1-465)”, the binding [1] is reported as “binds” and the binding (MYC-SnoN) is reported as “binds”.

B1: endogenous SnoN (protein, UniProt P12757-1 1-684)
chain: MENLQTNFSLVQGSTKKLNGMGDDGSPPAKKMITDIHANGKTINKVPTVKKEHLDDYGEAPVETDGEHVKRTCTSVPETLHLNPSLKHTLAQFHLSSQSSLGGPAAFSARHSQESMSPTVFLPLPSPQVLPGPLLIPSDSSTELTQTVLEGESISCFQVGGEKRLCLPQVLNSVLREFTLQQINTVCDELYIYCSRCTSDQLHILKVLGILPFNAPSCGLITLTDAQRLCNALLRPRTFPQNGSVLPAKSSLAQLKETGSAFEVEHECLGKCQGLFAPQFYVQPDAPCIQCLECCGMFAPQTFVMHSHRSPDKRTCHWGFESAKWHCYLHVNQKYLGTPEEKKLKIILEEMKEKFSMRSGKRNQSKTDAPSGMELQSWYPVIKQEGDHVSQTHSFLHPSYYLYMCDKVVAPNVSLTSAVSQSKELTKTEASKSISRQSEKAHSSGKLQKTVSYPDVSLEEQEKMDLKTSRELCSRLDASISNNSTSKRKSESATCNLVRDINKVGIGLVAAASSPLLVKDVICEDDKGKIMEEVMRTYLKQQEKLNLILQKKQQLQMEVKMLSSSKSMKELTEEQQNLQKELESLQNEHAQRMEEFYVEQKDLEKKLEQIMKQKCTCDSNLEKDKEAEYAGQLAELRQRLDHAEADRQELQDELRQEREARQKLEMMIKELKLQILKSSKTAKE
For B1, the binding [2] was “binds”.

B2: Rluc-SnoN (wild type, aa 1–684) (protein, UniProt P12757-1 1-684)
chain: MENLQTNFSLVQGSTKKLNGMGDDGSPPAKKMITDIHANGKTINKVPTVKKEHLDDYGEAPVETDGEHVKRTCTSVPETLHLNPSLKHTLAQFHLSSQSSLGGPAAFSARHSQESMSPTVFLPLPSPQVLPGPLLIPSDSSTELTQTVLEGESISCFQVGGEKRLCLPQVLNSVLREFTLQQINTVCDELYIYCSRCTSDQLHILKVLGILPFNAPSCGLITLTDAQRLCNALLRPRTFPQNGSVLPAKSSLAQLKETGSAFEVEHECLGKCQGLFAPQFYVQPDAPCIQCLECCGMFAPQTFVMHSHRSPDKRTCHWGFESAKWHCYLHVNQKYLGTPEEKKLKIILEEMKEKFSMRSGKRNQSKTDAPSGMELQSWYPVIKQEGDHVSQTHSFLHPSYYLYMCDKVVAPNVSLTSAVSQSKELTKTEASKSISRQSEKAHSSGKLQKTVSYPDVSLEEQEKMDLKTSRELCSRLDASISNNSTSKRKSESATCNLVRDINKVGIGLVAAASSPLLVKDVICEDDKGKIMEEVMRTYLKQQEKLNLILQKKQQLQMEVKMLSSSKSMKELTEEQQNLQKELESLQNEHAQRMEEFYVEQKDLEKKLEQIMKQKCTCDSNLEKDKEAEYAGQLAELRQRLDHAEADRQELQDELRQEREARQKLEMMIKELKLQILKSSKTAKE
For B2, the binding (HA-NDR1 [3]) was “binds” and the binding [4] was “binds”.

B3: Rluc-SnoN lacking the N-terminal 96 amino acids (domain or fragment, UniProt P12757-1 97-684)
chain: SQSSLGGPAAFSARHSQESMSPTVFLPLPSPQVLPGPLLIPSDSSTELTQTVLEGESISCFQVGGEKRLCLPQVLNSVLREFTLQQINTVCDELYIYCSRCTSDQLHILKVLGILPFNAPSCGLITLTDAQRLCNALLRPRTFPQNGSVLPAKSSLAQLKETGSAFEVEHECLGKCQGLFAPQFYVQPDAPCIQCLECCGMFAPQTFVMHSHRSPDKRTCHWGFESAKWHCYLHVNQKYLGTPEEKKLKIILEEMKEKFSMRSGKRNQSKTDAPSGMELQSWYPVIKQEGDHVSQTHSFLHPSYYLYMCDKVVAPNVSLTSAVSQSKELTKTEASKSISRQSEKAHSSGKLQKTVSYPDVSLEEQEKMDLKTSRELCSRLDASISNNSTSKRKSESATCNLVRDINKVGIGLVAAASSPLLVKDVICEDDKGKIMEEVMRTYLKQQEKLNLILQKKQQLQMEVKMLSSSKSMKELTEEQQNLQKELESLQNEHAQRMEEFYVEQKDLEKKLEQIMKQKCTCDSNLEKDKEAEYAGQLAELRQRLDHAEADRQELQDELRQEREARQKLEMMIKELKLQILKSSKTAKE
B3 was tested, and the binding (HA-NDR1 [3]) was “binds”.

B4: MYC-SnoN (protein, UniProt P12757-1 1-684)
chain: MENLQTNFSLVQGSTKKLNGMGDDGSPPAKKMITDIHANGKTINKVPTVKKEHLDDYGEAPVETDGEHVKRTCTSVPETLHLNPSLKHTLAQFHLSSQSSLGGPAAFSARHSQESMSPTVFLPLPSPQVLPGPLLIPSDSSTELTQTVLEGESISCFQVGGEKRLCLPQVLNSVLREFTLQQINTVCDELYIYCSRCTSDQLHILKVLGILPFNAPSCGLITLTDAQRLCNALLRPRTFPQNGSVLPAKSSLAQLKETGSAFEVEHECLGKCQGLFAPQFYVQPDAPCIQCLECCGMFAPQTFVMHSHRSPDKRTCHWGFESAKWHCYLHVNQKYLGTPEEKKLKIILEEMKEKFSMRSGKRNQSKTDAPSGMELQSWYPVIKQEGDHVSQTHSFLHPSYYLYMCDKVVAPNVSLTSAVSQSKELTKTEASKSISRQSEKAHSSGKLQKTVSYPDVSLEEQEKMDLKTSRELCSRLDASISNNSTSKRKSESATCNLVRDINKVGIGLVAAASSPLLVKDVICEDDKGKIMEEVMRTYLKQQEKLNLILQKKQQLQMEVKMLSSSKSMKELTEEQQNLQKELESLQNEHAQRMEEFYVEQKDLEKKLEQIMKQKCTCDSNLEKDKEAEYAGQLAELRQRLDHAEADRQELQDELRQEREARQKLEMMIKELKLQILKSSKTAKE
In the case of B4, the binding (HA-NDR1 [5]) is reported as “binds”.

B5: Rluc-SnoN N-terminal 96 amino acids (domain or fragment, UniProt P12757-1 1-96)
chain: MENLQTNFSLVQGSTKKLNGMGDDGSPPAKKMITDIHANGKTINKVPTVKKEHLDDYGEAPVETDGEHVKRTCTSVPETLHLNPSLKHTLAQFHLS
B5 was tested, and the binding (HA-NDR1 [3]) was “no binding”.
